{
  "source": "ChEMBL document CHEMBL1156829",
  "note": "Over roughly 5,400 compounds, “IFI” has its median near 2; the highest 2% begin near 22. The list shows a part of the results.",
  "data": [
    {"experiment": "NOVARTIS: Inhibition Frequency Index (IFI) - the number of HTS assays where a compound showed > 50% inhibition/induction, expressed as a percentage of the number of assays in which the compound was tested.", "assay_type": "functional", "units": {"IFI": "%"}, "values": [
      {"smiles": "Cc1ccc(C)c(-c2csc(Nc3ccc(C)c(C)c3)n2)c1", "IFI": 5.88},
      {"smiles": "CCCCCCN(C(=O)COc1ccc(Cl)cc1)C(CC)c1nc2ccccc2c(=O)n1-c1cccc(Cl)c1", "note": "(stereo not given)", "IFI": 1.89},
      {"smiles": "CC(=O)N(C1=C(N(C)C)C(=O)c2ccccc2C1=O)c1cccc(O)c1", "IFI": 0},
      {"smiles": "CCN1CCN(c2cc(C)c3cc(NC(=O)c4cccc([N+](=O)[O-])c4)ccc3n2)CC1", "IFI": 0},
      {"smiles": "Cc1ccc2nc(Nc3ncc4c(n3)CC(C)(C)CC4=O)nc(C)c2c1", "IFI": 0},
      {"smiles": "O=C(Nc1ccc(C2=NCCN2)cc1)Nc1cc(C(=O)Nc2ccc(C3=NCCN3)cc2)ccc1C(=O)Nc1ccc(C2=NCCN2)cc1", "IFI": 1.8},
      {"smiles": "CCOC(=O)C1=C(CC)NC2=C(C(=O)CC(C)(C)C2)C1c1ccc(Cl)cc1Cl", "note": "(stereo not given)", "IFI": 0},
      {"smiles": "CCN(CC)CCCC(C)Nc1c2ccc(Cl)cc2nc2ccc(OC)nc12", "note": "(stereo not given)", "IFI": 9.76},
      {"smiles": "CN(CCCNc1ccnc2cc(Cl)ccc12)S(=O)(=O)c1ccc(Br)cc1", "IFI": 7.41},
      {"smiles": "CCOC(=O)c1c(NC(=O)COc2ccccc2[N+](=O)[O-])sc(C(C)=O)c1C", "IFI": 0},
      {"smiles": "CC1(C)N=C(N)N=C(N)N1c1ccccc1", "IFI": 5.3},
      {"smiles": "Cc1ccc(CSCc2ccc(C(=O)NC3CC3)o2)cc1", "IFI": 0},
      {"smiles": "N#Cc1ccc(NC(=O)c2cc(Cl)ccc2O)cc1", "IFI": 24.7},
      {"smiles": "C[n+]1c(/C=C/c2ccc(F)cc2)ccc2ccccc21", "IFI": 8.77},
      {"smiles": "CN(C)CCNc1ccc2ncc(-c3ccsc3)n2n1", "IFI": 0},
      {"smiles": "Cc1cccc(C(=O)NCc2nnc(S)n2-c2cccc(C(F)(F)F)c2)c1", "IFI": 1.18},
      {"smiles": "COc1ccc(OCC(O)CNC2CCN(CC(O)COc3ccc(Cl)c(Cl)c3)CC2)cc1", "note": "(stereo not given)", "IFI": 3.36},
      {"smiles": "CN(C)CCCn1c(N)c(-c2nc3ccccc3[nH]2)c2nc(C#N)c(C#N)nc21", "IFI": 0},
      {"smiles": "CCn1c(SCC(=O)N(c2ccccc2)c2ccccc2)nc2sc3c(c2c1=O)CCN(C)C3", "IFI": 2},
      {"smiles": "COc1ccc(-c2ccc(C(=O)N(C)Cc3cscn3)c(N3CCC(N4CCc5ccccc5C4)CC3)n2)cc1", "IFI": 3.85},
      {"smiles": "CCOC(=O)c1c(N=Cc2cccc(OC)c2O)sc2c1CCN(C)C2", "IFI": 0},
      {"smiles": "Cc1ccnc(Nc2nc(-c3ccccn3)cs2)c1", "IFI": 24.6},
      {"smiles": "CC(=O)Nc1cccc(NC(=O)C(F)(F)F)c1", "IFI": 4.76},
      {"smiles": "COc1cc(C2c3[nH]c4ccccc4c3C[C@@H]3C(=O)N(CCc4ccccc4)CC(=O)N23)cc(OC)c1OC", "note": "(stereo not given in full)", "IFI": 2},
      {"smiles": "CCCCC(CC)C(=O)NCCCCNc1ccnc2cc(Cl)ccc12", "note": "(stereo not given)", "IFI": 7.41},
      {"smiles": "Cc1ccc(CNC(=O)c2cc3sc(Cl)cc3n2C)cc1", "IFI": 0},
      {"smiles": "Cc1cccc(NC(=O)N2CCN(C(=O)c3nc(-c4ccccc4)nc(C)c3C(=O)OC(C)C)CC2C)c1C", "note": "(stereo not given)", "IFI": 1.87},
      {"smiles": "O=C(NC1CC1)c1ccc(OC2CCN(CC3CCCCC3)CC2)c(Cl)c1", "IFI": 2.78},
      {"smiles": "O=C(NN=Cc1c(O)ccc2ccccc12)c1cccnc1", "IFI": 14.7},
      {"smiles": "Cc1cccc(CCNc2cc(C)nc3ncnn23)c1", "IFI": 0},
      {"smiles": "CC12C(=O)N(c3cccc(C(=O)O)c3)C(=O)C1C1c3ccccc3C2c2ccccc21", "note": "(stereo not given)", "IFI": 0},
      {"smiles": "Clc1ccc2[nH]c3c(NCCC4=CCCCC4)ncnc3c2c1", "IFI": 15},
      {"smiles": "Cc1ccn2c(NC(C)(C)CC(C)(C)C)c(-c3ccccc3OC(=O)C(c3ccccc3)c3ccccc3)nc2c1", "IFI": 2.15},
      {"smiles": "O=C(Nc1ccc(-c2nc3cc(NC(=O)c4ccc(Br)o4)ccc3[nH]2)cc1)c1ccc(Br)o1", "IFI": 7.69},
      {"smiles": "CCCCN(C)C(=O)c1sc2ncn(CC(=O)N(CC)CC)c(=O)c2c1C", "IFI": 0},
      {"smiles": "CCn1c(SCc2ccc(Cl)cc2Cl)nc2sc3c(c2c1=O)CCN(C)C3", "IFI": 11.8},
      {"smiles": "COC(=O)CSc1nnc2c(n1)[nH]c1c(OC)ccc(Cl)c12", "IFI": 3.19},
      {"smiles": "CCCCN(CCCC)c1nc(=O)cc(-c2ccc(Cl)cc2)o1", "IFI": 0},
      {"smiles": "COc1ccc(NC(=O)NCc2cccn2Cc2ccc(F)cc2)cc1OC", "IFI": 0},
      {"smiles": "CCNc1ncnc2sc(C(=O)NCc3csc(C)n3)c(C)c12", "IFI": 0},
      {"smiles": "O=C(Nc1ccc(-c2cn3ccsc3n2)cc1)c1ccc(S(=O)(=O)N2CCCCCC2)cc1", "IFI": 3.12},
      {"smiles": "O=C(O)c1ccc([C@@H]2Nc3c(ccc4ccccc34)[C@@H]3C=CC[C@@H]32)cc1", "IFI": 5.88},
      {"smiles": "CC(=O)N(C1=C(N2CCCC2)C(=O)c2ccccc2C1=O)c1ccc(I)cc1", "IFI": 1.33},
      {"smiles": "C=CCC1C=C(Cc2ccccc2)CC(CC=C)N1", "note": "(stereo not given)", "IFI": 3.92},
      {"smiles": "CN(c1ncnc2sc3c(c12)CCCC3)C1CCCCC1", "IFI": 1.18},
      {"smiles": "CCOc1cc(C=NN=C(N)N)ccc1OCc1ccccc1", "IFI": 2.24},
      {"smiles": "CCc1cc2c(NCCN3CCCCC3)ncnc2s1", "IFI": 0},
      {"smiles": "CC(C)(C)CC(C)(C)Nc1c(-c2ccccc2OC(=O)c2ccccc2F)nc2ccccn12", "IFI": 2.83},
      {"smiles": "COc1ccc(CCNc2nc(NCCCn3ccnc3)ncc2C(=O)NCc2ccccc2)cc1OC", "IFI": 0.952},
      {"smiles": "CC(=O)Nc1ccc(NC2=C(N3CCCCC3)C(=O)c3ccccc3C2=O)cc1", "IFI": 0},
      {"smiles": "CC(=O)N(Cc1ccc(F)cc1)C1=C(NCCc2ccccc2)C(=O)c2ccccc2C1=O", "IFI": 8.33},
      {"smiles": "OCCCNc1cc(-c2ccccn2)nc(-c2ccccn2)n1", "IFI": 15.4},
      {"smiles": "CN=C1S/C(=C\\c2ccc(OCC(=O)O)c(OC)c2)C(=O)N1C", "IFI": 0},
      {"smiles": "CC(C)CNC(=O)c1cnc(NCCCn2ccnc2)nc1NCC(C)C", "IFI": 0.98},
      {"smiles": "Cc1ccc(C(=O)CSc2nc(N)c(C#N)c(-c3cccs3)c2C#N)cc1", "IFI": 7.14},
      {"smiles": "Cc1cc(Nc2cccc([N+](=O)[O-])c2)nc2cc(O)ccc12", "IFI": 0},
      {"smiles": "COc1ccccc1/C=C\\CN(C(=O)c1ccc(C)cc1)C(c1ccccc1)c1ccccc1", "IFI": 2.2},
      {"smiles": "NC1(C(=O)O)CCc2cc(C(=O)O)ccc21", "note": "(stereo not given)", "IFI": 1.48},
      {"smiles": "O=[N+]([O-])c1ccc(N2CCCN(C(=S)Nc3ccccc3)CC2)nc1", "IFI": 1.67},
      {"smiles": "Fc1ccc(Nc2nc(NCc3ccccc3)c3ccccc3n2)cc1", "IFI": 9.52},
      {"smiles": "O=[N+]([O-])c1ccc(C=NNc2nc3ccccc3[nH]2)cc1", "IFI": 1.47},
      {"smiles": "Cc1ccc(-c2nnc(N3CCOCC3)c3ccccc23)cc1S(=O)(=O)N1CCN(C)CC1", "IFI": 0},
      {"smiles": "O=C(O)C(Cc1ccc([N+](=O)[O-])cc1)NS(=O)(=O)c1ccc(OC(F)(F)F)cc1", "note": "(stereo not given)", "IFI": 0},
      {"smiles": "CCCCCCCC(=O)N(C)CCCNc1ccnc2cc(Cl)ccc12", "IFI": 6.32},
      {"smiles": "CC[n+]1c(/C=C/N2CCCc3ccccc32)ccc2ccccc21", "IFI": 19.5}
    ]}
  ]
}
